# In the supplement of paper PMC8728848:
# Some of the results follow.
# Columns and labels:
# Assay in all cases: glycan array binding signal (z-score within array); higher = stronger binding
# Conditions in all cases: glycan notation: IUPAC condensed, linker removed
# Glc(a1-6)Glc(a1-6)Glc = molecular target: Glc(a1-6)Glc(a1-6)Glc
# How it was run: (§1)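 Arrays were curated from the Consortium for Functional Glycomics database, 3228 in total, and kept only where the protein sequence was available. Binding is expressed as a within-array Z-score. This score was averaged across arrays of the same protein sequence at different concentrations or buffers and across linkers, and negative values can be read as non-binding.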
# [1] = molecular target: Glc(a1-6)Glc(a1-6)Glc(a1-6)Glc
# How it was run: as §1
# Glc(b1-4)Glc = molecular target: Glc(b1-4)Glc
# How it was run: as §1
# Glc(b1-6)Glc = molecular target: Glc(b1-6)Glc
# How it was run: as §1
# GlcA(b1-3)Gal = molecular target: GlcA(b1-3)Gal
# How it was run: as §1
# GlcA(b1-3)GlcNAc = molecular target: GlcA(b1-3)GlcNAc
# How it was run: as §1
# GlcA(b1-6)Gal = molecular target: GlcA(b1-6)Gal
# How it was run: as §1
# [2] = molecular target: GlcA3S(b1-3)Gal(b1-4)GlcNAc(b1-2)Man
# How it was run: as §1
# [3] = molecular target: GlcA3S(b1-3)Gal(b1-4)GlcNAc(b1-3)Gal(b1-4)Glc
# How it was run: as §1
# [4] = molecular target: GlcNAc(a1-3)Gal(b1-4)GlcNAc
# How it was run: as §1
# [5] = molecular target: GlcNAc(a1-4)Gal(b1-3)GlcNAc
# How it was run: as §1
# [6] = molecular target: GlcNAc(a1-4)Gal(b1-4)GalNAc
# How it was run: as §1
# [7] = molecular target: GlcNAc(a1-4)Gal(b1-4)GlcNAc
# How it was run: as §1
# [8] = molecular target: GlcNAc(a1-4)Gal(b1-4)GlcNAc(b1-3)Gal(b1-4)Glc
# How it was run: as §1
# [9] = molecular target: GlcNAc(a1-4)Gal(b1-4)GlcNAc(b1-3)Gal(b1-4)GlcNAc
# How it was run: as §1
# [10] = molecular target: GlcNAc(a1-4)Gal(b1-4)GlcNAc(b1-3)Gal(b1-4)GlcNAc(b1-3)Gal(b1-4)GlcNAc
# How it was run: as §1
# [11] = molecular target: GlcNAc(a1-4)Gal(b1-4)GlcNAc(b1-3)Gal(b1-4)[Fuc(a1-3)]GlcNAc(b1-3)Gal(b1-4)[Fuc(a1-3)]GlcNAc
# How it was run: as §1
# [12] = molecular target: GlcNAc(a1-6)Gal(b1-4)GlcNAc
# How it was run: as §1
# [13] = molecular target: GlcNAc(b1-2)Gal(b1-3)GalNAc
# How it was run: as §1
# [14] = molecular target: GlcNAc(b1-2)Man(a1-3)[GlcNAc(b1-2)Man(a1-6)]Man(b1-4)GlcNAc(b1-4)GlcNAc
# How it was run: as §1
# [15] = molecular target: GlcNAc(b1-2)Man(a1-3)[GlcNAc(b1-2)Man(a1-6)]Man(b1-4)GlcNAc(b1-4)[Fuc(a1-6)]GlcNAc
# How it was run: as §1
# [16] = molecular target: GlcNAc(b1-2)Man(a1-3)[GlcNAc(b1-4)][GlcNAc(b1-2)Man(a1-6)]Man(b1-4)GlcNAc(b1-4)GlcNAc
# How it was run: as §1
# [17] = molecular target: GlcNAc(b1-2)Man(a1-3)[GlcNAc(b1-4)][GlcNAc(b1-2)Man(a1-6)]Man(b1-4)GlcNAc(b1-4)[Fuc(a1-6)]GlcNAc
# How it was run: as §1
# [18] = molecular target: GlcNAc(b1-2)[GlcNAc(b1-4)]Man(a1-3)[GlcNAc(b1-2)Man(a1-6)]Man(b1-4)GlcNAc(b1-4)GlcNAc
# How it was run: as §1
# [19] = molecular target: GlcNAc(b1-2)[GlcNAc(b1-4)]Man(a1-3)[GlcNAc(b1-4)][GlcNAc(b1-2)Man(a1-6)]Man(b1-4)GlcNAc(b1-4)GlcNAc
# How it was run: as §1
# [20] = molecular target: GlcNAc(b1-2)[GlcNAc(b1-4)]Man(a1-3)[GlcNAc(b1-4)][GlcNAc(b1-2)[GlcNAc(b1-6)]Man(a1-6)]Man(b1-4)GlcNAc(b1-4)GlcNAc
# How it was run: as §1
# [21] = molecular target: GlcNAc(b1-2)[GlcNAc(b1-4)]Man(a1-3)[GlcNAc(b1-4)][GlcNAc(b1-2)[GlcNAc(b1-6)]Man(a1-6)]Man(b1-4)GlcNAc(b1-4)[Fuc(a1-6)]GlcNAc
# How it was run: as §1
# [22] = molecular target: GlcNAc(b1-2)[GlcNAc(b1-6)]Man(a1-6)[GlcNAc(b1-2)Man(a1-3)]Man(b1-4)GlcNAc(b1-4)GlcNAc
# How it was run: as §1
# [23] = molecular target: GlcNAc(b1-2)[GlcNAc(b1-6)]Man(a1-6)[GlcNAc(b1-2)Man(a1-3)]Man(b1-4)GlcNAc(b1-4)[Fuc(a1-6)]GlcNAc
# How it was run: as §1
# [24] = molecular target: GlcNAc(b1-2)[GlcNAc(b1-6)]Man(a1-6)[GlcNAc(b1-2)Man(a1-3)][GlcNAc(b1-4)]Man(b1-4)GlcNAc(b1-4)GlcNAc
# How it was run: as §1
binder,measurement,setting,value
"Siglec-F (Mus musculus), Q920G3 (protein) MRWAWLLPLLWAGCLATDGYSLSVTGSVTVQEGLCVFVACQVQYPNSKGPVFGYWFREGANIFSGSPVATNDPQRSVLKEAQGRFYLMGKENSHNCSLDIRDAQKIDTGTYFFRLDGSVKYSFQKSMLSVLVIALTEVPNIQVTSTLVSGNSTKLLCSVPWACEQGTPPIFSWMSSALTSLGHRTTLSSELNLTPRPQDNGTNLTCQVNLPGTGVTVERTQQLSVIYAPQKMTIRVSWGDDTGTKVLQSGASLQIQEGESLSLVCMADSNPPAVLSWERPTQKPFQLSTPAELQLPRAELEDQGKYICQAQNSQGAQTASVSLSIRSLLQLLGPSCSFEGQGLHCSCSSRAWPAPSLRWRLGEGVLEGNSSNGSFTVKSSSAGQWANSSLILSMEFSSNHRLSCEAWSDNRVQRATILLVSGPKVSQAGKSETSRGTVLGAIWGAGLMALLAVCLCLIFFTVKVLRKKSALKVAATKGNHLAKNPASTINSASITSSNIALGYPIQGHLNEPGSQTQKEQPPLATVPDTQKDEPELHYASLSFQGPMPPKPQNTEAMKSVYTEIKIHKC",glycan array binding signal (z-score),Glc(a1-6)Glc(a1-6)Glc,-0.121
same,glycan array binding signal (z-score),[1],-0.102
same,glycan array binding signal (z-score),Glc(b1-4)Glc,-0.125
same,glycan array binding signal (z-score),Glc(b1-6)Glc,-0.12
same,glycan array binding signal (z-score),GlcA(b1-3)Gal,-0.13
same,glycan array binding signal (z-score),GlcA(b1-3)GlcNAc,-0.121
same,glycan array binding signal (z-score),GlcA(b1-6)Gal,-0.117
same,glycan array binding signal (z-score),[2],-0.141
same,glycan array binding signal (z-score),[3],-0.157
same,glycan array binding signal (z-score),[4],-0.11
same,glycan array binding signal (z-score),[5],-0.117
same,glycan array binding signal (z-score),[6],-0.121
same,glycan array binding signal (z-score),[7],-0.125
same,glycan array binding signal (z-score),[8],-0.121
same,glycan array binding signal (z-score),[9],-0.146
same,glycan array binding signal (z-score),[10],-0.103
same,glycan array binding signal (z-score),[11],-0.074
same,glycan array binding signal (z-score),[12],-0.084
same,glycan array binding signal (z-score),[13],-0.111
same,glycan array binding signal (z-score),[14],-0.124
same,glycan array binding signal (z-score),[15],-0.115
same,glycan array binding signal (z-score),[16],-0.115
same,glycan array binding signal (z-score),[17],-0.137
same,glycan array binding signal (z-score),[18],-0.119
same,glycan array binding signal (z-score),[19],-0.088
same,glycan array binding signal (z-score),[20],-0.116
same,glycan array binding signal (z-score),[21],-0.152
same,glycan array binding signal (z-score),[22],-0.097
same,glycan array binding signal (z-score),[23],-0.158
same,glycan array binding signal (z-score),[24],-0.09
